According to publication PMC6919601, “Identification of Plasmodium dipeptidyl aminopeptidase allosteric inhibitors by high throughput screening” (PLoS ONE, 2019):
In all, about 110,000 compounds went through this assay and about 230 (0.21%) showed an effect of 50% or more. The list shows a part of the results.

Molecular target: DPAP1 (Plasmodium falciparum, UniProt Q8IIJ9)
Experiment: primary screen, percent inhibition; read by cleavage of a fluorogenic dipeptide substrate; higher = more effect of the substance
Design: species or system P. falciparum D10 trophozoite lysates; single well
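Note: 30 min substrate incubation versus DMSO and 10 µM JCP410 controls.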

Chain of DPAP1 (Q8IIJ9 whole entry, looked up): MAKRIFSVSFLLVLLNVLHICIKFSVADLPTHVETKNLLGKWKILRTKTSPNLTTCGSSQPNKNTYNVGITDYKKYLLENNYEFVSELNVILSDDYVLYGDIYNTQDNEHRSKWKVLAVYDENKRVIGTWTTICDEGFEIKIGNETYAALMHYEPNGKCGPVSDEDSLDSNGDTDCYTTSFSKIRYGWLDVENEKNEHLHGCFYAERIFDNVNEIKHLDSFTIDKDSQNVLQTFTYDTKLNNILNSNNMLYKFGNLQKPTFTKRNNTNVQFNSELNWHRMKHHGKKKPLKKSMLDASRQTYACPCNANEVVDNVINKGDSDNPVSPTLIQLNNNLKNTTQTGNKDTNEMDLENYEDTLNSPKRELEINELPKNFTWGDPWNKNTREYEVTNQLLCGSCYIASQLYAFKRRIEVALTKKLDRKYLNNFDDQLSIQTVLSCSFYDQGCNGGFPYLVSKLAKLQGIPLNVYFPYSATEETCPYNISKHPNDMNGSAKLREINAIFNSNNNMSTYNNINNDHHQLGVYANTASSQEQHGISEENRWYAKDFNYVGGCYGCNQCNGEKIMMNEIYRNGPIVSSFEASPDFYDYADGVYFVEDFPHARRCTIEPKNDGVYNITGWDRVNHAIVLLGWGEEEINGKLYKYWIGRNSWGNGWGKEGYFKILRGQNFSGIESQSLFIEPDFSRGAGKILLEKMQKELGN

| Compound | % Inhibition @ 10 uM |
| --- | --- |
| Cc1cc([N+](=O)[O-])cc2c1NC(=O)C2=O | 4.08% |
| CSc1nc(-c2ccccc2)nc(N2CCOCC2)c1C(C)=O | -7.46% |
| CCn1nccc1C(=O)Nc1ccc(C)cc1C | -6.48% |
| O=C(Nc1ccc(Oc2ccccc2)cc1)c1ccc(NC(=O)C(F)(F)F)cc1 | -1.95% |
| Cc1ccc(C)n1-c1nnc(N2CCC(C(=O)NCCN3CCOCC3)CC2)s1 | 1.72% |
| CC(C)=CCC[C@H](C)CCN1CCN(c2ccccc2)CC1 | -0.603% |
| Cc1nn(CC(=O)O)c(=O)c2c1sc1ccccc12 | -0.0309% |
| Cn1c(=O)c2sccc2n2c(CCC(=O)NCc3cccs3)nnc12 | -1.01% |
| C=C(C)COc1cc(O)c2c(=O)cc(-c3ccccc3)oc2c1 | -1.6% |
| Cc1ccc(S(=O)(=O)N2CCN(CCO)CC2)cc1-c1nnc2c3ccccc3c(C)nn12 | -3.64% |
| Cc1ccc(NC(=O)/C=C/c2ccc3c(c2)OCO3)cc1C | -2.12% |
| CC(=O)Nc1cccc(NC(=O)COc2ccccc2C)c1 | -1.42% |
| CC(C)C[C@H](NC(=O)OCCC1CCCC1)C(=O)NCC#N | -3.04% |
| O=C1NC(=O)C(=Cc2cn(-c3ccccc3)nc2-c2ccc(F)cc2)C(=O)N1 | -6.08% |
| CCOC(=O)C1=C(Cc2ccc(F)cc2)C(=O)c2ccccc2C1=O | 9.64% |
| COc1cccc2sc(N(CCCN(C)C)C(=O)c3ccc(Br)s3)nc12 | -5.18% |
| COc1ccccc1CNC(=O)C1CCN(S(=O)(=O)c2ccc3[nH]c4c(c3c2)CCCCC4)CC1 | -1.7% |
| COc1ccc(-c2csc(NC3=NCCCCC3)n2)cc1 | -5.13% |
| Cc1cc(Oc2nc3ccccn3c(=O)c2/C=C(\C#N)C(=O)NCc2ccco2)ccc1Cl | -6.23% |
| Fc1cccc(F)c1CN1CCN(Cc2ccccc2)CC1 | 3.24% |
| COc1ccc(C(=O)Nc2c3c(nn2-c2ccccc2C)CS(=O)C3)c(OC)c1 (stereo not drawn) | 2.84% |
| COc1ccc(C(=O)Nc2cc(OC)cc(OC)c2)cc1 | 7.34% |

| Compound | % Inhibition @ 10 uM |
| --- | --- |
| COc1cc(S(=O)(=O)NC(C)c2ccccc2)c(OC)cc1Cl (stereo not drawn) | 4.63% |
| CC(=O)OC1CCC2(C)C(=CCC3C2CCC2(C)C(C(C)=O)=C(C)CC32)C1 (stereo not drawn) | -2.58% |
| Cc1ccc(C(=O)Nc2sc(C)c(C)c2C(N)=O)o1 | 5.14% |
| CS(=O)(=O)N1CCN(Cc2ccccn2)CC1 | -4.7% |
| COCCNC(=O)CCn1nc(-c2ccc(Cl)cc2)ccc1=O | -3.58% |
| CCCCOC(=O)C1C2c3ccccc3C(c3ccccc32)C1C(=O)O (stereo not drawn) | -0.415% |
| O=C1c2ccccc2C(=O)N1CC(=O)n1nnc2ccccc21 | 2.7% |
| CCN(CC)C(=O)Cn1cc(S(=O)(=O)Cc2cccc(C(F)(F)F)c2)c2ccccc21 | 4.29% |
| Cc1ccc(C(=O)N[C@@H](Cc2cc(I)c(O)c(I)c2)C(=O)NCC#N)cc1 | -6.46% |
| CSc1nsc(SCC(=O)N2CCOCC2)n1 | -4.75% |
| CCOCCCn1c(=N)c(C(=O)NCc2ccccc2)cc2c(=O)n3cccc(C)c3nc21 | 3.6% |
| CC(C)(C)NC(=O)CSc1ncccn1 | -1.33% |
| CCOc1ccc(NC(=O)CSCC(=O)Nc2cccc(C)c2C)cc1 | -2.09% |
| Brc1ccccc1-c1nnc2sc(-c3cc4ccccc4o3)nn12 | 4.47% |
| CCN1CCN(C2CCN(Cc3ccccc3)CC2)CC1 | 1.57% |
| COc1ccc(-n2c(SCC(=O)N3CCOCC3)nc3sc4c(c3c2=O)CCC4)cc1 | 9.91% |
| CCOC(=O)c1sc2nc3c(cc2c1N)CCC3 | -5.61% |
| CS(=O)(=O)NCCOc1ccc(S(=O)(=O)NCCc2ccccc2)cc1 | -2.19% |
| CCCCN1C(=O)C(NC(=O)C2CCCCC2)(C(F)(F)F)C2=C1CC(C)(C)CC2=O (stereo not drawn) | 1.91% |
| CCCc1noc2c1C(=O)C(C(=O)OC)C(C)(C)C2 (stereo not drawn) | -4.43% |
| CCCNC(=O)c1cc2c(=O)n3ccccc3nc2n1C | -1.55% |
| CC(c1ccccc1)C1CC(=O)N(Cc2ccco2)C1=O (stereo not drawn) | -0.958% |

| Compound | % Inhibition @ 10 uM |
| --- | --- |
| COc1ccc2nc(C)sc2c1NC(C)=O | -4.58% |
| Fc1cccc(Cl)c1Cn1c(C2CCCO2)nc2ccccc21 (stereo not drawn) | -1.22% |
| CC1(C)CNC(=O)c2sc(N)nc2C1 | -3.44% |
| Cc1nc(O)cc2c1[nH]c1ccccc12 | 4.33% |
| CCCCN(CCNC(=O)Cn1ncc2c3ccccc3nc-2c1O)Cc1ccco1 | 7.2% |
| CC(C)C[C@H](NC(=O)OCc1ccccc1)C(=O)N[C@H](C#N)Cc1ccc(O)cc1 | -10.1% |
| Cc1ccc(Cl)cc1NC(=O)CN(c1ccc2c(c1)OCCO2)S(=O)(=O)c1ccccc1 | 2.63% |
| O=c1[nH]c(=O)c2nc(Br)n(C3OC(CO)C(O)C3O)c2[nH]1 (stereo not drawn) | -10.4% |
| COc1cc(OC)c(OC)cc1CN1CCN(Cc2ccccc2C(F)(F)F)CC1 | -5.82% |
| O=C(O)CCCn1c(=O)cc(O)c2ccccc21 | 1.03% |
| Cc1ccc(C(=O)C2=C(O)C(=O)N(CC3CCCO3)C2c2cccc(Br)c2)o1 (stereo not drawn) | -15.4% |
| CC1=C(C(=O)NCc2ccccc2)C(c2cccn2C)n2nnnc2N1 (stereo not drawn) | 2.73% |
| O=C(Nc1ccc2ccccc2c1)c1cccs1 | -9.33% |
| CC(C)CCOc1ccc(C2NC(=O)NC2=O)cc1 (stereo not drawn) | -2.63% |
| CCN(CC)C(=O)Cc1ccc(OC)cc1 | 3.61% |
| CCCOc1ccc(NCC(=O)Nc2ccc(C)cc2)cc1 | 10.6% |
| CCC(Cc1ccccc1)NC(=O)c1cnc2ccc(S(=O)(=O)N3CCC(C)CC3)cc2c1O (stereo not drawn) | -3.78% |
| O=C(Cc1ccccc1)Nc1ccc(NC(=O)Cc2ccccc2)cc1 | 2.6% |
| O=C(CSc1nc2nccnc2c(=O)n1Cc1ccc2c(c1)OCO2)NCCc1ccccc1 | -5.66% |
| C=CCOc1c(Br)cc(CNCCO)cc1OC | 6.98% |
| CCc1ccc(-n2c(SCC(=O)NCC3CCCO3)nc3nnc(C)c-3c2N)cc1 (stereo not drawn) | 22.7% |
| COC(=O)c1cc(C)nc2c1c(C)nn2-c1ccccc1 | -1.57% |
